Measurements published in PubChem BioAssay (NCATS).
Values joined by “and” are separate entries in the source; they are usually repeats but may differ in a detail not shown here. Equal entries are not always repeated. The shares of active, inactive and inconclusive entries below differ from those in the screen. A potency beside an inconclusive call is a rough fit, not a confirmed value. Active and inactive are the calls of the source. Calls come from the whole dose curve; as a rule, active = well fitted curve in the direction sought with a large enough effect; inconclusive = small, poorly fitted or top-dose-only effect, or another doubt; inactive = no such curve, though single readings can be large; an effect the other way counts as inactive or inconclusive.

Experiments:
[1] = qHTS of pediatric cancer cell lines to identify multiple opportunities for drug repurposing: Primary screen for DAOY cells (AID 1347090); details: DAOY medulloblastoma viability, CellTiter-Glo luminescence, 48 h; activity change, negative = cytotoxic: at 46 µM (top of the series); note: nearly all actives have a fitted effect of over 55% in size
Outline: (§1)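 Eight- or eleven-point concentration series, 48 h treatment at 37 degrees C in growth media; readout CellTiter-Glo luminescence. Potency and efficacy were taken from the concentration-response curves.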

[2] = qHTS of pediatric cancer cell lines to identify multiple opportunities for drug repurposing: Primary screen for A673 cells (AID 1347092); details: A673 Ewing sarcoma viability, CellTiter-Glo ATP luminescence, 48 h; activity change, negative = cytotoxic: at 46 µM (top of the series); note: nearly all actives have a fitted effect of over 45% in size
Outline: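 A673 cells (500-1,000 cells/well) were treated 48 hours at 37 degrees C with compounds at 11-point (0.78 nM to 46 µM) or 8-point (0.59 nM to 46 µM) dilutions. Viability read by CellTiter-Glo luminescence; concentration-response curves fitted.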

[3] = qHTS of pediatric cancer cell lines to identify multiple opportunities for drug repurposing: Primary screen for BT-37 cells (AID 1347094)
Outline: (§2)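 500-1,000 cells/well; 5 h pre-incubation 37 °C/5% CO2; compound pinned; 48 h; CellTiter-Glo, 15 min RT; luminescence. MIPE 11-pt from 0.78 nM, NPC 8-pt from 0.59 nM final. Bortezomib 2.3 µM final as positive control.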

[4] = qHTS of pediatric cancer cell lines to identify multiple opportunities for drug repurposing: Primary screen for Saos-2 cells (AID 1347097); note: nearly all actives have a fitted effect of over 40% in size
Outline: as §2

[5] = qHTS of pediatric cancer cell lines to identify multiple opportunities for drug repurposing: Primary screen for SK-N-SH cells (AID 1347098); note: nearly all actives have a fitted effect of over 65% in size
Outline: (§3)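 Cells (500-1,000/well) rested 5 h, then received compounds for 48 h; metabolically active cells were measured by CellTiter-Glo luminescence. Final concentrations spanned up to 46 µM (MIPE, 11-point) or 0.59 nM-46 µM (NPC, 8-point) in primary screens, 11-point in follow-ups.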

[6] = qHTS of pediatric cancer cell lines to identify multiple opportunities for drug repurposing: Primary screen for BT-12 cells (AID 1347101); note: nearly all actives have a fitted effect of over 25% in size
Outline: as §3

[7] = qHTS of pediatric cancer cell lines to identify multiple opportunities for drug repurposing: Primary screen for RD cells (AID 1347104); note: nearly all actives have a fitted effect of over 55% in size
Outline: as §2

[8] = qHTS of pediatric cancer cell lines to identify multiple opportunities for drug repurposing: Primary screen for MG 63 (6-TG R) cells (AID 1347105); details: MG 63 (6-TG R) viability, CellTiter-Glo, 48 h; activity change, negative = cytotoxic: at 46 µM (top of the series); note: nearly all actives have a fitted effect of over 50% in size
Outline: as §2

[9] = qHTS of pediatric cancer cell lines to identify multiple opportunities for drug repurposing: Primary screen for Rh30 cells (AID 1347107); note: nearly all actives have a fitted effect of over 75% in size
Outline: (§4)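 Cells (500-1,000/well) in growth media were settled 5 h at 37 degrees C, then given compounds for 48 h. Viability was read as CellTiter-Glo luminescence. Primary runs used MIPE at 11 points (0.78 nM-46 µM) and NPC at 8 points (0.59 nM-46 µM); follow-ups used 11 points.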

[10] = qHTS of pediatric cancer cell lines to identify multiple opportunities for drug repurposing: Primary screen for Rh41 cells (AID 1347108); note: nearly all actives have a fitted effect of over 70% in size
Outline: as §2

[11] = qHTS of pediatric cancer cell lines to identify multiple opportunities for drug repurposing: Confirmatory screen for NB1643 cells (AID 1347109); details: NB1643 neuroblastoma cell viability; activity change, negative = cytotoxic: at 45.9 µM (top of the series); note: nearly all actives have a fitted effect of over 45% in size
Outline: as §4

[12] = qHTS of pediatric cancer cell lines to identify multiple opportunities for drug repurposing: Primary screen for NB-EBc1 cells (AID 1347095)
Outline: as §2

[13] = qHTS of pediatric cancer cell lines to identify multiple opportunities for drug repurposing: Primary screen for OHS-50 cells (AID 1347103); note: nearly all actives have a fitted effect of over 40% in size
Outline: as §3

[14] = qHTS of pediatric cancer cell lines to identify multiple opportunities for drug repurposing: Primary screen for U-2 OS cells (AID 1347096); note: nearly all actives have a fitted effect of over 50% in size
Outline: as §4

[15] = qHTS of pediatric cancer cell lines to identify multiple opportunities for drug repurposing: Primary screen for control Hh wild type fibroblast cells (AID 1347106); note: nearly all actives have a fitted effect of over 55% in size
Outline: as §4

[16] = qHTS of pediatric cancer cell lines to identify multiple opportunities for drug repurposing: Primary screen for SJ-GBM2 cells (AID 1347091)
Outline: as §1

[17] = qHTS of pediatric cancer cell lines to identify multiple opportunities for drug repurposing: Primary screen for NB1643 cells (AID 1347099); note: nearly all actives have a fitted effect of over 50% in size
Outline: as §2

[18] = qHTS of pediatric cancer cell lines to identify multiple opportunities for drug repurposing: Primary screen for Rh18 cells (AID 1347102); note: nearly all actives have a fitted effect of over 65% in size
Outline: as §4

[19] = qHTS of pediatric cancer cell lines to identify multiple opportunities for drug repurposing: Primary screen for SK-N-MC cells (AID 1347093); details: SK-N-MC viability, CellTiter-Glo luminescence, 48 h; activity change, negative = cytotoxic: at 46 µM (top of the series)
Outline: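 Metabolically active cells were quantified by ATP-dependent luminescence (CellTiter-Glo, 15 min at room temperature) following 48 h treatment. Cells had been plated at 500-1,000 per well and settled for 5 h beforehand.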
Potency is the fitted concentration of half-maximal effect; tags give direction and shape of the fitted curve.

Compound | Potency [1] | Potency [2] | Potency [3] | Potency [4] | Potency [5] | Potency [6] | Potency [7] | Potency [8] | Potency [9] | Potency [10] | Potency [11] | Potency [12] | Potency [13] | Potency [14] | Potency [15] | Potency [16] | Potency [17] | Potency [18] | Potency [19]
CCOC(=O)C1=C(C)NC(=S)NC1c1cccc(O)c1 (stereo unspecified) | active: 0.469 µM | active: 0.0469 µM | inconclusive: 0.172 µM [cytotoxic, full curve] | inconclusive: 83.3 nM [cytotoxic, full curve] | inconclusive: 0.0341 µM [cytotoxic, full curve] | active: 0.137 µM | inconclusive: 0.235 µM [cytotoxic, full curve] | inconclusive: 0.743 µM [cytotoxic, full curve] | inactive | inconclusive: 0.743 µM [cytotoxic, full curve] | inconclusive: 20.8 µM [cytotoxic, single point] | – | – | – | – | – | – | – | –
CCCCCCCc1ccc(CCc2cccc(O)c2C(=O)O)cc1 | inconclusive: 23.5 µM [cytotoxic, single point] | inconclusive: 23.5 µM [cytotoxic, partial curve, poor fit] | inconclusive: 19.3 µM [cytotoxic, partial curve, poor fit] | – | inconclusive: 17.1 µM [cytotoxic, partial curve] | inconclusive: 24.3 µM [cytotoxic, partial curve, poor fit] | inconclusive: 29.6 µM [cytotoxic, single point] | inconclusive: 18.7 µM [cytotoxic, partial curve] | inconclusive: 16.6 µM [cytotoxic, partial curve] | inconclusive: 18.7 µM [cytotoxic, partial curve] | – | inconclusive: 23.5 µM [cytotoxic, single point] | inconclusive: 19.3 µM [cytotoxic, partial curve] | – | – | – | – | – | –
CS(=O)(=O)Oc1ccc2c(NC(N)=O)c(C(=O)c3ccc(Cl)cc3Cl)oc2c1 | active: 14.8 µM | active: 2.35 µM | active: 3.43 µM | inconclusive: 11800 nM [cytotoxic, partial curve, poor fit] | – | inconclusive: 3.06 µM [cytotoxic, full curve] | – | – | – | inconclusive: 7.43 µM [cytotoxic, full curve] | – | active: 4.18 µM | – | inconclusive: 11.8 µM [cytotoxic, partial curve] | inconclusive: 20.9 µM [cytotoxic, partial curve, poor fit] | – | – | – | –
Cc1cc(Nc2nc(N[C@@H](C)c3ccc(F)cc3)c(C#N)cc2F)n[nH]1 | inconclusive: 23.5 µM [cytotoxic, single point] | – | – | – | active: 3.41 µM | – | inconclusive: 1.87 µM [cytotoxic, partial curve] | – | inconclusive: 5.9 µM [cytotoxic, partial curve] | active: 5.9 µM | – | – | inconclusive: 1.09 µM [cytotoxic, full curve, poor fit] | – | active: 14.8 µM | inconclusive: 11.8 µM [cytotoxic, partial curve, poor fit] | active: 0.935 µM | active: 5.9 µM | –
CCC(C)(C)c1ccc(CC(C)CN2C[C@@H](C)O[C@@H](C)C2)cc1 (stereo partly specified) | inconclusive: 26.6 µM [cytotoxic, single point] | inconclusive: 26.6 µM [cytotoxic, single point] and inconclusive: 37.2 µM [cytotoxic, single point] | – | inconclusive: 33.5 µM [cytotoxic, single point] and inconclusive: 41.8 µM [cytotoxic, partial curve, poor fit] | – | – | – | – | – | – | – | – | inconclusive: 38.9 µM [cytotoxic, partial curve, poor fit] and inconclusive: 1 nM [cytotoxic, full curve, poor fit] | – | – | – | inconclusive: 23.5 µM [cytotoxic, partial curve] | – | inconclusive: 33.5 µM [cytotoxic, single point] and inconclusive: 37.2 µM [cytotoxic, single point]
CC1(O)CC(c2nc(-c3ccc4ccc(-c5ccccc5)nc4c3)c3c(N)nccn23)C1 (stereo unspecified) | inconclusive: 23.5 µM [cytotoxic, single point] | active: 23.5 µM | active: 19.3 µM | – | inconclusive: 21.5 µM [cytotoxic, partial curve] | – | – | inconclusive: 2.96 µM [cytotoxic, partial curve] | inconclusive: 5.9 µM [cytotoxic, partial curve] | active: 0.935 µM | – | active: 0.662 µM | active: 0.544 µM | inconclusive: 18.7 µM [cytotoxic, single point] | – | – | – | inconclusive: 20.9 µM [cytotoxic, partial curve] | –
CCc1c2c(nc3ccc(OC(=O)N4CCC(N5CCCCC5)CC4)cc13)-c1cc3c(c(=O)n1C2)COC(=O)[C@]3(O)CC | active: 13.3 µM and active: 1.48 µM | active: 1.06 µM and active: 590 nM | active: 389 nM and active: 544 nM | – | active: 7.7 µM and inconclusive: 681 nM [cytotoxic, full curve] | inconclusive: 872 nM [cytotoxic, full curve] and active: 2.43 µM | – | active: 21.1 µM and active: 1.48 µM | inconclusive: 10.6 µM [cytotoxic, partial curve] and inconclusive: 2.96 µM [cytotoxic, partial curve] | inconclusive: 18.8 µM [cytotoxic, single point] and inconclusive: 3.32 µM [cytotoxic, full curve] | – | – | inconclusive: 2.76 µM [cytotoxic, full curve, poor fit] | – | – | – | active: 841 nM and active: 1.66 µM | inconclusive: 33.5 µM [cytotoxic, single point] | –
CC[C@H](C)C(=O)O[C@H]1C[C@@H](C)C=C2C=C[C@H](C)[C@H](CC[C@@H]3C[C@@H](O)CC(=O)O3)[C@H]21 | active: 8.41 µM and active: 9.35 µM | inconclusive: 10.6 µM [cytotoxic, partial curve, poor fit] and inconclusive: 14.8 µM [cytotoxic, partial curve] | – | inconclusive: 1.06 µM [cytotoxic, full curve] and active: 5.9 µM | – | active: 1.23 µM and active: 3.43 µM | – | active: 4.22 µM and active: 4.69 µM | – | inconclusive: 15 µM [cytotoxic, partial curve] and inconclusive: 18.7 µM [cytotoxic, partial curve] | – | inconclusive: 8.41 µM [cytotoxic, partial curve, poor fit] and inconclusive: 5.9 µM [cytotoxic, partial curve, poor fit] | active: 6.92 µM and active: 9.68 µM | inconclusive: 10.6 µM [cytotoxic, partial curve] | inconclusive: 10.5 µM [cytotoxic, partial curve, poor fit] | – | inconclusive: 6.62 µM [cytotoxic, partial curve, poor fit] | – | inconclusive: 668 nM [cytotoxic, partial curve, poor fit]
